According to PubChem BioAssay AID588342 (National Center for Advancing Translational Sciences (NCATS), 2011):
In all, about 360,000 compounds went through this assay and about 25,000 (6.9%) were called active. Inconclusive means that the source gave no clear call. Such entries were picked first, then a sample of the others. The call rests on the fitted dose curve; in most records, active means well fitted inhibition curve with a large enough effect; inconclusive means small, poorly fitted or top-dose-only effect; inactive means flat fitted curve, though single readings scatter. A potency beside an inconclusive call is a rough fit, not a confirmed value.

What follows are compounds tested against Luciferin 4-monooxygenase (Photinus pyralis) (UniProt P08659) (assay: qHTS profiling assay for firefly luciferase inhibitor/activator using purifed enzyme and Km concentrations of substrates (counterscreen for miR-21 project)). Details: purified FLuc, luminescence inhibition; activity change, negative = inhibition: at 57.5 µM (top of the series).
Outline: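 Purified P. pyralis luciferase (10nM final) with 10uM D-luciferin and 10uM ATP (Km levels) in 50mM Tris acetate pH 7.5, 10mM Mg acetate, 0.01% Tween-20, 0.05% BSA; qHTS 6-point titration, ~60 µM downward; luminescence read.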
Further: nearly all actives have a fitted effect of over 55% in size.
Potency means the concentration at half of the fitted maximal effect; tags describe the fitted curve by direction and shape.
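Wherever activity change, negative = inhibition is given: plate controls were vehicle for no effect and reference inhibitor for full effect.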

Chain of UniProt P08659 (P08659 whole entry, looked up): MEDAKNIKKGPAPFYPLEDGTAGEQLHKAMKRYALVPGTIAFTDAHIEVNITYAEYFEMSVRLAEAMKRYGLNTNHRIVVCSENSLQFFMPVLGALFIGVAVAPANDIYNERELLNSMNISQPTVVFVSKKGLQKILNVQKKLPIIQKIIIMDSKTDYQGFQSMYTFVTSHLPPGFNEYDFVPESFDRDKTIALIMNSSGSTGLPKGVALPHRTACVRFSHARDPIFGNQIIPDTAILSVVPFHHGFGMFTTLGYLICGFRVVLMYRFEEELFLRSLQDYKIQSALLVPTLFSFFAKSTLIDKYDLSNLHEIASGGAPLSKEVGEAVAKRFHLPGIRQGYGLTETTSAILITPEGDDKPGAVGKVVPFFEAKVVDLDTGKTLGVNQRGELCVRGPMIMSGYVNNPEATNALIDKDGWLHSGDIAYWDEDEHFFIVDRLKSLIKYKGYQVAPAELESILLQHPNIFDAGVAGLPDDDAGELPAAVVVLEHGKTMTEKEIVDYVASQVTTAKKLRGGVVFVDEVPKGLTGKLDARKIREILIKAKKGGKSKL

| Structure (SMILES) | activity change, negative = inhibition | Potency |
| --- | --- | --- |
| Cn1nnnc1SCCCNCc1cc(Cl)ccc1OCc1ccccc1 | inactive: -0.392% |  |
| Cc1ccc(NC(=O)CN2C(=O)CSC2=O)cc1 |  | inconclusive: 21.3 µM [inhibitor, single point] |
| CCc1c(C)sc(NC(=O)C2CC(c3c(F)cccc3Cl)=NO2)c1C#N (centres undefined) |  | inconclusive: 26.9 µM [inhibitor, partial curve, poor fit] |
| c1ccc(-c2csc(-n3cccn3)n2)cc1 |  | active: 26.9 µM |
| Cc1sc(NC(=O)c2ccco2)c(CN2CCN(c3ccccc3)CC2)c1C |  | inconclusive: 15.1 µM [inhibitor, partial curve] |
| COc1ccc(C2=Nc3ccccc3N(CC(=O)Nc3cccc(C(C)=O)c3)C(=O)C2)cc1 | inactive: -19.3% |  |
| COC(=O)c1c(-c2cccnc2)csc1NC(=O)c1cc(C)on1 |  | active: 6.01 µM |
| Cn1c(CNC(=O)CNS(=O)(=O)c2ccc(Cl)cc2)cc(=O)n(C)c1=O | inactive: 0.879% |  |
| CC1(C)Cc2c(sc3nc(-c4cc5ccccc5o4)n(N)c(=O)c23)CO1 |  | active: 6.01 µM |
| CCCOc1nc2ccccc2cc1/C=C/C(=O)O |  | inconclusive: 30.1 µM [inhibitor, partial curve, poor fit] |
| CN(c1cc(=O)n2ccccc2n1)C1CCCCC1 |  | inconclusive: 23.9 µM [inhibitor, single point] |
| C/C(=N\NC(=O)c1ccccc1)c1ccc(NC(=O)c2cccs2)cc1 |  | inconclusive: 37.9 µM [inhibitor, partial curve, poor fit] |
| CC1CCCCC12NC(=O)N(CC(=O)N1CCN(c3ncccn3)CC1)C2=O (centres undefined) | inactive: -0.585% |  |
| Nc1c(C(=O)Nc2cccc(C(=O)O)c2)sc2nc3c(cc12)CCCC3 |  | active: 0.0675 µM |
| Cc1n[nH]c(=O)nc1N/N=C/c1ccco1 | inactive: 0.748% |  |
| CS(=O)(=O)Oc1ccc(/C=N/NC(=O)c2ccncc2)cc1 |  | inconclusive: 15.1 µM [inhibitor, partial curve] |
| Fc1ccc(/C=N/NC(=S)Nc2cccnc2)cc1 |  | inconclusive: 23.9 µM [inhibitor, single point] |
| O=C(COC(=O)c1ccc(NS(=O)(=O)c2cccs2)cc1O)Nc1nc2ccccc2s1 |  | inconclusive: 26.9 µM [inhibitor, partial curve, poor fit] |
| CN(C)c1ccc(CNC(=O)C2CCN(C(=O)c3ccc(-n4ccc5ccccc54)s3)CC2)cc1 |  | inconclusive: 8.49 µM [inhibitor, partial curve, poor fit] |
| COc1ccc(C(=O)Nc2ccc3nc(C)c(C)nc3c2)cc1 |  | inconclusive: 19 µM [inhibitor, partial curve] |
| CCOC(=O)c1cc(-c2ccc(OC)cc2)n(CCC(=O)NCCc2ccc(OCC)c(OCC)c2)c1C | inactive: -0.604% |  |
| O=C(NN1CCOCC1)c1cc(-c2ccc(Cl)c(Cl)c2)nc2ccccc12 |  | inconclusive: 10.7 µM [inhibitor, partial curve] |
| COC(=O)c1ccc(/C=C/C(=O)c2ccc(OC)cc2)cc1 |  | active: 10.7 µM |
| Cc1nc2c(cc(Oc3ccc(S(=O)(=O)N4CCOCC4)cn3)c3ccsc32)s1 |  | inconclusive: 23.9 µM [inhibitor, partial curve, poor fit] |
| Cc1nc2sccn2c(=O)c1S(=O)(=O)Nc1cccc(Cl)c1C |  | inactive |

| Structure (SMILES) | activity change, negative = inhibition | Potency |
| --- | --- | --- |
| COc1ccc(/C=N/Nc2nc(N3CCCC3)nc(N3CCCC3)n2)cc1O |  | inconclusive: 21.3 µM [inhibitor, single point] |
| CC(C)CNC(=O)c1ccccc1NC(=O)Nc1ccccc1 |  | inconclusive: 10.7 µM [inhibitor, partial curve] |
| Cc1ccc(C)n1-c1sc2c(c1C#N)CCCC2 | inactive: -0.369% |  |
| COc1ccc(N2CCN(CNC(=O)c3ccccc3)CC2)cc1 | inactive: 0.0596% |  |
| O=C(O)c1ccc(N/N=C/c2c[nH]c3ccccc23)cc1 |  | active: 0.426 µM |
| CCCNC(=O)c1ccc(COc2ccc(C(C)(C)C)cc2)o1 |  | inconclusive: 37.9 µM [inhibitor, single point] |
| COc1ccc(Oc2ncnc3c2oc2ccccc23)cc1 |  | inconclusive: 37.9 µM [inhibitor, single point] |
| COc1ccc(CCNC(=O)Cn2nc(-c3ccc(Cl)cc3)ccc2=O)cc1OC | inactive: 2.65% |  |
| Cc1nc2ccc(NC(=O)C(F)(F)F)cc2o1 | inactive: 5.14% |  |
| CCOc1ccc(N2C=Nc3ccc(OCC)cc3C2)cc1 |  | inconclusive: 19 µM [inhibitor, partial curve] |
| Cc1ccc(Nc2nnc(SCC(=O)NC3CC3)s2)cc1 |  | active: 7.57 µM |
| Cc1ccc(-n2nc3ccc(NC(=O)c4ccco4)cc3n2)cc1 |  | active: 9.53 µM |
| Cn1ncc2c(Nc3ccc(Cl)cc3)ncnc21 |  | inconclusive: 30.1 µM [inhibitor, partial curve, poor fit] |
| CCOC(=O)Cc1csc(NC(=S)NC(=O)c2ccc(F)cc2)n1 |  | inconclusive: 19 µM [inhibitor, partial curve] |
| COc1ccc(NC(=O)c2ccco2)cc1NC(=O)c1ccc(OC(C)C)cc1 |  | inconclusive: 26.9 µM [inhibitor, partial curve, poor fit] |
| N#C/C(=C\c1ccc(O)c(O)c1)C(=O)NCCc1ccccc1 |  | inconclusive: 21.3 µM [inhibitor, single point] |
| COc1ccc(NC(=O)Nc2nnc(-c3ccco3)s2)cc1 |  | inconclusive: 1.69 µM [inhibitor, full curve] |
| CC(=O)c1cccc(NCC(=O)c2ccc(C)c([N+](=O)[O-])c2)c1 |  | inconclusive: 16.9 µM [inhibitor, partial curve] |
| Cc1ccc(C2=NN(C(=O)CCC(=O)O)C(c3cn(-c4ccccc4)nc3-c3ccc(C)cc3)C2)cc1 (centres undefined) |  | inconclusive: 21.3 µM [inhibitor, single point] |
| O=C(N/N=C\c1cccnc1)c1ccccc1O |  | active: 7.57 µM |
| CC(=O)c1c(C)[nH]c(C(=O)OCc2ccc(Br)cc2)c1C |  | inconclusive: 37.9 µM [inhibitor, partial curve, poor fit] |
| COc1ccc(NS(=O)(=O)c2cc3c4c(c2)CC(=O)N4CCC3)cc1Cl | inactive: -10.1% |  |
| CCOC(=O)c1ccc(NC(=S)Nc2ccccc2)cc1 |  | inconclusive: 26.9 µM [inhibitor, partial curve, poor fit] |
| OCc1nc2ccccc2n1CCc1ccccc1 |  | inconclusive: 26.9 µM [inhibitor, partial curve, poor fit] |
| Cc1ccccc1N(C)C(=O)C1CCCN(c2ncnc3c2nc2n3CCCCC2)C1 (centres undefined) | inactive: 1.29% |  |

| Structure (SMILES) | activity change, negative = inhibition | Potency |
| --- | --- | --- |
| Nc1nonc1-n1nnc(C(=O)N/N=C/c2ccc3c(c2)OCO3)c1-c1ccccc1 |  | inconclusive: 26.9 µM [inhibitor, partial curve] |
| CC(C)OCCCNc1ncnc2c1cnn2-c1ccccc1 |  | active: 4.26 µM |
| Cc1ccccc1Nc1nc(N)nc(COC(=O)c2cccn2C)n1 |  | active: 16.9 µM |
| CCCc1ccc2oc(C(=O)NCCc3nc(C(=O)OCC)cs3)c(C)c2c1 |  | active: 13.5 µM |
| COc1cccc2cc(C(=O)NCc3ccco3)c(=O)oc12 |  | inconclusive: 4.78 µM [inhibitor, full curve] |
| COc1ccc(OC)c(/C=C/C(=O)OCC(=O)Nc2ccc(Cl)c(S(=O)(=O)N(C)C)c2)c1 |  | inconclusive: 37.9 µM [inhibitor, partial curve, poor fit] |
| COc1ccc(C(C(=O)NCc2ccccc2)N(C(=O)Cn2nnc3ccccc32)c2ccc(OC)cc2)cc1 (centres undefined) | inactive: 0.534% |  |
| O=C1C2C3C=CC(CC3)C2C(=O)N1/N=C/c1c[nH]c2ccccc12 (centres undefined) |  | active: 9.53 µM |
| COCCn1c(=S)[nH]c2cc(C(=O)N(CCO)Cc3ccccc3)ccc2c1=O | inactive: 2.16% |  |
| O=C(CSCc1ccc(Cl)cc1Cl)Nc1ccc(O)cc1C(=O)O |  | inconclusive: 21.3 µM [inhibitor, partial curve, poor fit] |
| Cc1ccc(NC(=O)N2CCc3c([nH]c4ccccc34)C2c2ccccc2F)c(Cl)c1 (centres undefined) | inactive: -0.931% |  |
| COC(=O)c1sccc1NC(=O)c1ccccc1[N+](=O)[O-] |  | inconclusive: 0.757 µM [inhibitor, partial curve, poor fit] |
| COc1ccc(NC(=O)CCC(=O)Nc2cc(OC)c(NC(=O)c3ccco3)cc2OC)c(OC)c1 | inactive: -0.211% |  |
| O=C(CSc1nc(-c2ccccc2)cc(=O)[nH]1)Nc1ccccc1 |  | inconclusive: 33.8 µM [inhibitor, partial curve, poor fit] |
| COc1cc([N+](=O)[O-])ccc1N=Nc1c(N)[nH]n(-c2ccccc2)c1=O |  | inconclusive: 9.53 µM [inhibitor, partial curve, poor fit] |
| CSc1ncc(C(=O)NCc2cccc(Br)c2)c(-c2ccccc2)n1 | inactive: -2.54% |  |
| Oc1[nH]c2ccccc2c1N=Nc1cccc(Cl)c1 |  | active: 5.36 µM |
| CC(Sc1ncnc2ccccc12)C(=O)Nc1ccc2c(c1)OCCO2 (centres undefined) |  | inconclusive: 21.3 µM [inhibitor, single point] |
| N/C(=N\OC(=O)c1cccc(F)c1)c1cccc([N+](=O)[O-])c1 |  | active: 1.51 µM |
| CCN(CC(=O)NCc1ccc(F)cc1)C(=O)c1ccc(C(=O)c2ccccc2)cc1 | inactive: 2.06% |  |
| CCCCS(=O)(=O)N1CCCC(C(=O)Nc2ccc3c(c2)CCC3)C1 (centres undefined) |  | inconclusive: 23.9 µM [inhibitor, single point] |
| COc1cccc(NC(=O)CSc2nnc(NC(=O)NC3CCCCC3)s2)c1 |  | active: 1.51 µM |
| Cc1cc(C)c(C#N)c(SCC(=O)c2cccs2)n1 |  | inconclusive: 37.9 µM [inhibitor, single point] |
| Cc1cc(SCCOc2ccccc2)nc(N)n1 |  | inconclusive: 26.9 µM [inhibitor, single point] |
